# Source: the supplement of paper PMC6206098
# ± gives the uncertainty stated by the source. The sequences are guide strands of siRNAs; only the seed at positions 2 to 7 varies.
# Legend:
# [1] = test system: 3LL; test: cell viability relative to siNT1 control; higher = less toxic; settings: concentration: 10 nM; 96 h; Mus musculus;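 also: Luminescence-based viability of cells reverse transfected in 384-well plates with lipid-complexed siRNAs built on a non-toxic 19mer backbone whose passenger strand carries 2′-O-methyl groups at positions 1 and 2, triplicates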
# [2] = test system: M565; test: cell viability relative to lipid-only control; HeyA8 human ovarian and H460 human lung cancer; M565 mouse liver and 3LL mouse lung cancer; siNT1 is a non-toxic control siRNA; higher = less toxic; settings: concentration: 10 nM; 96 h; Mus musculus
# [3] = test system: H460; test: as above; settings: concentration: 10 nM; 96 h; Homo sapiens
# [4] = test system: HeyA8; test: as above; settings: concentration: 10 nM; 96 h; Homo sapiens
# 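For cell viability relative to lipid-only control in this document: reverse lipid transfection in 384-well plates, in triplicate, of duplexes on a non-toxic 19mer backbone with passenger strand 2′-O-methylated at positions 1 and 2, luminescence viability read-out.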
Sequence,cell viability [1] [%],cell viability [2] [%],cell viability [3] [%],cell viability [4] [%]
UAAAUUAACAUGUAAACCAAA,112 ± 12,103 ± 14,80.8 ± 10,97.1 ± 6
UGGUCAUACAUGUAAACCAAA,93.3 ± 6.3,77.3 ± 11,39.1 ± 2,30.4 ± 2.4
UAGCAACACAUGUAAACCAAA,54.4 ± 7,40.2 ± 5.4,65.2 ± 11,71.9 ± 6.9
UGUCGACACAUGUAAACCAAA,75.5 ± 13,34.3 ± 4.4,51.9 ± 9.4,81.8 ± 42
UGGUACGACAUGUAAACCAAA,73.1 ± 1.6,38.2 ± 4.8,55.7 ± 2.9,67.8 ± 5
UAGUAUUACAUGUAAACCAAA,85 ± 2.5,63.8 ± 10,46.7 ± 5.7,38.2 ± 4.3
UCAGUGCACAUGUAAACCAAA,92.6 ± 15,83.6 ± 10,38.7 ± 4,73.9 ± 5.2
UAACGGAACAUGUAAACCAAA,89.2 ± 4.7,90.8 ± 18,97 ± 17,87 ± 4
UCGUAAAACAUGUAAACCAAA,102 ± 20,81.3 ± 5.6,93.2 ± 22,89 ± 8.6
UAGUCUAACAUGUAAACCAAA,94.8 ± 7.2,52.9 ± 8.5,77.5 ± 12,88.4 ± 6.5
UUGCCGUACAUGUAAACCAAA,13.1 ± 0.45,21.8 ± 6,73.8 ± 8,96.6 ± 9.8
UGUCGCUACAUGUAAACCAAA,37.54 ± 0.19,25 ± 2.3,31 ± 6.4,32.2 ± 2.5
UGCGCAUACAUGUAAACCAAA,78.1 ± 12,49.8 ± 0.93,87.5 ± 26,74.9 ± 6.7
UGAUAAUACAUGUAAACCAAA,56 ± 21,87.4 ± 9.3,65.2 ± 8.1,30 ± 5.3
UCACUGAACAUGUAAACCAAA,86.9 ± 12,62.6 ± 16,42 ± 6.2,85.2 ± 12
UGCGUUUACAUGUAAACCAAA,80.7 ± 8.8,60.9 ± 3.8,61.4 ± 1.5,67.3 ± 4.7
UAGACGCACAUGUAAACCAAA,13.9 ± 5.2,20.2 ± 1,50.8 ± 5.3,52.1 ± 2.8
UGUGCUAACAUGUAAACCAAA,90 ± 15,120 ± 17,70.6 ± 11,88.5 ± 11
UUUGUUCACAUGUAAACCAAA,91.3 ± 12,35.7 ± 4.6,81.1 ± 12,62.7 ± 4.1
UUAUUUCACAUGUAAACCAAA,19.5 ± 4.1,23.6 ± 5.5,63.1 ± 8.7,56.3 ± 2.2

Sequence,cell viability [1] [%],cell viability [2] [%],cell viability [3] [%],cell viability [4] [%]
UUAACACACAUGUAAACCAAA,75.1 ± 6.8,74.3 ± 6.7,73.6 ± 13,81.1 ± 8.8
UCGGUCAACAUGUAAACCAAA,92.7 ± 6.9,48 ± 5.2,68.1 ± 9.4,69.9 ± 6.2
UUCAACGACAUGUAAACCAAA,95.5 ± 20,84.3 ± 13,69 ± 8.3,83.4 ± 9.8
UGGGAGCACAUGUAAACCAAA,23.3 ± 6.1,18.6 ± 3,24.4 ± 2.2,4.13 ± 1.3
UGGGACCACAUGUAAACCAAA,16 ± 3.8,6.03 ± 1.3,67.9 ± 17,84.1 ± 4.2
UGGCGCCACAUGUAAACCAAA,22.9 ± 6.8,21 ± 1.2,23.5 ± 5.4,9.16 ± 0.76
UACCGAAACAUGUAAACCAAA,83.8 ± 5.8,71.3 ± 6.5,72.1 ± 13,90.5 ± 2.9
UCAAGCUACAUGUAAACCAAA,63.6 ± 12,18.1 ± 1.9,58.8 ± 9.1,63.4 ± 6.2
UUAAGUCACAUGUAAACCAAA,7.88 ± 3.9,28.5 ± 5.1,63.9 ± 5.5,59.4 ± 7.9
UAGACAAACAUGUAAACCAAA,80.7 ± 2,56.4 ± 5.2,99.7 ± 21,105 ± 12
UACCCUCACAUGUAAACCAAA,59.7 ± 7.2,37.7 ± 5.7,34.9 ± 1.3,48.9 ± 5.1
UCAGAGCACAUGUAAACCAAA,41.9 ± 13,59.6 ± 1.2,50.7 ± 2.7,67.8 ± 2
UACGAAUACAUGUAAACCAAA,90.3 ± 12,76.4 ± 10,94.6 ± 26,87.5 ± 15
UAAAAUGACAUGUAAACCAAA,117 ± 7.9,94.9 ± 17,80.7 ± 7.1,97.1 ± 5.6
UGCGUAAACAUGUAAACCAAA,89.2 ± 10,87.69 ± 0.7,72.4 ± 5.3,86.2 ± 7.2
UGCCCGAACAUGUAAACCAAA,76.5 ± 13,47.2 ± 1.7,64.4 ± 4.3,84.6 ± 4.1
UUAUUACACAUGUAAACCAAA,25.4 ± 4.5,62.4 ± 5.8,56 ± 7.4,66.6 ± 1.1
UGGAAACACAUGUAAACCAAA,71.6 ± 7.9,51.4 ± 13,59.5 ± 5.3,39.7 ± 3.8
UUUGGACACAUGUAAACCAAA,78.2 ± 6.5,65.7 ± 11,74.6 ± 12,69.7 ± 3.5
UGAUCCCACAUGUAAACCAAA,38.6 ± 5.5,7.32 ± 0.77,67.4 ± 5.4,60.6 ± 4.4

Sequence,cell viability [1] [%],cell viability [2] [%],cell viability [3] [%],cell viability [4] [%]
UGAACACACAUGUAAACCAAA,63.5 ± 11,43.6 ± 8.9,47.5 ± 5.5,38.5 ± 7.1
UUGAGCGACAUGUAAACCAAA,88.6 ± 2.6,68.5 ± 5.3,74.6 ± 3.8,92.5 ± 7.3
UAACCAGACAUGUAAACCAAA,87 ± 11,20.5 ± 4.8,80.6 ± 12,98 ± 3.2
UCCGUACACAUGUAAACCAAA,100 ± 33,94.4 ± 23,56.5 ± 10,54.3 ± 3.9
UCCCUAUACAUGUAAACCAAA,98.9 ± 34,74.1 ± 16,59.5 ± 10,82 ± 4.1
UGGCCCCACAUGUAAACCAAA,10.8 ± 3.6,21.3 ± 7.6,36.4 ± 2,31.4 ± 3.7
UUCGAUGACAUGUAAACCAAA,99.9 ± 27,82.5 ± 3,68.4 ± 10,90 ± 8.7
UUGGUUGACAUGUAAACCAAA,93.9 ± 10,76.5 ± 13,69.9 ± 8.7,87 ± 7.2
UUGCACGACAUGUAAACCAAA,75.1 ± 6.3,72 ± 13,69.4 ± 4.2,87.6 ± 4.4
UGAUCGAACAUGUAAACCAAA,87.1 ± 20,47.5 ± 5.2,55.4 ± 6,68.1 ± 7.6
UUCAUCUACAUGUAAACCAAA,32.9 ± 11,41.5 ± 9.5,51.6 ± 3.3,27 ± 4.1
UGCCUGUACAUGUAAACCAAA,38.3 ± 7.3,36.6 ± 0.65,19.1 ± 0.85,2.98 ± 0.49
UCAUCCGACAUGUAAACCAAA,80.1 ± 16,51.5 ± 2.2,34.9 ± 1.8,47 ± 2.2
UACCAGCACAUGUAAACCAAA,8.04 ± 1.6,4.88 ± 2.2,32.9 ± 6.2,20.6 ± 1.4
UAGAUGUACAUGUAAACCAAA,27.8 ± 3.9,30.9 ± 3.3,87.9 ± 23,43.6 ± 2.9
UCCCCUGACAUGUAAACCAAA,110 ± 16,71.5 ± 8.5,71 ± 5.1,81.7 ± 6.8
UUGUCGCACAUGUAAACCAAA,24.1 ± 3.6,41.8 ± 2.7,62.3 ± 5,48.1 ± 3
UGAAUGUACAUGUAAACCAAA,99.4 ± 13,53.3 ± 9.5,53.3 ± 16,13.2 ± 2.3
UCCGUUCACAUGUAAACCAAA,54.2 ± 19,16.7 ± 3,36.1 ± 7.2,13.1 ± 1.4
